# Measurements as given in PubChem BioAssay AID686979 (National Center for Advancing Translational Sciences (NCATS), 2013).
# “And” between values parts separate entries of the source, which are not always exact repeats. Equal entries are not always repeated. About 50,000 (12%) of roughly 420,000 compounds were called active. Inconclusive results, whose numbers are uncertain, are shown with a selection of clear calls. The call rests on the fitted dose curve; in most records, active means well fitted inhibition curve with a large enough effect; inconclusive means small, poorly fitted or top-dose-only effect; inactive means flat fitted curve, though single readings scatter. Potencies of inconclusive entries are doubtful fits and often do not repeat.
# Experiment: qHTS for Inhibitors of human tyrosyl-DNA phosphodiesterase 1 (TDP1): qHTS in cells in presence of CPT; further: nearly all actives have a fitted effect of over 55% in size
# Conditions: chicken DT40 Tdp1-/-;hTDP1 cells + 20 nM CPT, ATP luminescence, 48 h; activity change, negative = growth inhibition: at 46.2 µM (top of the series)
# Procedure, shortened: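 Chicken DT40 Tdp1-/- cells complemented with human TDP1, 400 cells/well, exposed to compounds plus 20 nM camptothecin for at least 48 h at 37 C; viability read as ATP content by CellTiter-Glo luminescence.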
# On the % scale 0 is the no-effect control and ±100 the full control effect; potency means the concentration at half of the fitted maximal effect; tags describe the fitted curve by direction and shape.
Structure (SMILES),Potency,"activity change, negative = growth inhibition"
Cc1ccc(-n2nc3c(=O)n(CCCC(=O)NCc4cccc(F)c4)nc(C)c3c2C)cc1,"inconclusive: 14.6 µM [inhibitor, single point]",–
O=C(NCCNC(=O)c1cc(OCC(F)(F)F)ccc1OCC(F)(F)F)Nc1cccc(C(F)(F)F)c1,"inconclusive: 23.1 µM [inhibitor, single point]",–
Cc1cccc(NC(=O)/C(C#N)=C/c2ccco2)c1,–,inconclusive: -30.5% [inhibitor]
COc1ccc(OC)c(CNC(=O)c2cc3c(Cl)nc4ccccc4c3s2)c1,"inconclusive: 25.9 µM [inhibitor, single point]",–
COc1ccc(/[N+]([O-])=C/c2ccco2)cc1,active: 14.6 µM,–
CC(C)c1ccc(NC(=O)C2CSC3(C)CCC(=O)N23)cc1 (centres undefined),"inconclusive: 23.1 µM [inhibitor, single point]",–
CCCNC(=O)C(Cc1cccc(Br)c1)NC(=O)c1ccc(C#N)cc1 (centres undefined),"inconclusive: 20.6 µM [inhibitor, partial curve]",–
CC(C)(CCC(=S)N1CCOCC1)C1CCCCC1,"inconclusive: 29.1 µM [inhibitor, single point]",–
CCC(CO)n1c(SCc2cc([N+](=O)[O-])cc3c2OCOC3)nc2ccccc2c1=O (centres undefined),"inconclusive: 23.1 µM [inhibitor, single point]",–
C(=C/c1nccc2c1[nH]c1ccccc12)/c1ccc2c(c1)OCO2,active: 5.62 µM,–
O=C(CN1CCN(c2ccc(O)cc2)CC1)Nc1ccc(S(=O)(=O)N2CCCC2)cc1,–,inactive: -0.094%
CCOc1ccc(S(=O)(=O)N2CCOCC2)cc1NC(=O)CSCc1ccc(C)cc1,active: 5.17 µM,–
CCOc1ccc(NC(=O)CN(C)C(=O)CSCc2c(C)noc2C)cc1OCC,–,inactive: -16.1%
COc1ccccc1NC(C#N)c1ccccc1OCc1ccccc1 (centres undefined),"inconclusive: 29.1 µM [inhibitor, single point]",–
CC1CCCCN1C(=O)CSc1nnc(-c2cccnc2)o1 (centres undefined),–,inactive: 8.32%
NNC(=O)c1sc2cc(C(F)(F)F)cnc2c1-c1cccs1,–,inactive: -17.1%
C[C@@H](CSc1ccccc1)CN1CC[C@H](C(C)(C)C)CCC1=O,"inconclusive: 17.8 µM [inhibitor, single point] and inconclusive: 29.1 µM [inhibitor, single point]",–
COc1ccc(NC(=O)N(C)C[C@H]2Oc3ccc(NC(=O)Nc4c(C)noc4C)cc3C(=O)N([C@H](C)CO)C[C@@H]2C)cc1,–,inactive: 1.83%
Cc1ccc(-n2ncc3c(NCc4ccco4)ncnc32)c(C)c1,"inconclusive: 29.1 µM [inhibitor, single point]",–
N#Cc1ccc(-c2ccco2)nc1SCc1ccccc1,"inconclusive: 20.6 µM [inhibitor, partial curve]",–
Cc1nc(N=Nc2ccc(O)cc2)n[nH]1,"inconclusive: 20.6 µM [inhibitor, single point]",–
COc1ccc(Cl)cc1NC(=O)Nc1ccccc1SC,"inconclusive: 29.1 µM [inhibitor, single point]",–
Cc1ccc(C(O)c2ncc(-c3ccc4ccccc4c3)[nH]2)cc1 (centres undefined),"inconclusive: 23.1 µM [inhibitor, single point]",–

Structure (SMILES),Potency,"activity change, negative = growth inhibition"
COCCN(C(=O)CSc1nnc(C)n1Cc1ccccc1)c1c(N)n(Cc2ccccc2)c(=O)[nH]c1=O,"inconclusive: 29.1 µM [inhibitor, single point]",–
O=C1NC(c2ccccc2)=C(c2nc3ccccc3s2)C(c2ccccc2)N1 (centres undefined),"inconclusive: 23.1 µM [inhibitor, single point]",–
CNC[C@@H](Cc1ccccc1)NC[C@@H](CC1CCCCC1)NCCCc1ccccc1,active: 8.2 µM,–
Cc1cccc(Cn2cnc3c(nnn3Cc3ccc(Cl)cc3)c2=O)c1,"inconclusive: 10 µM [inhibitor, partial curve]",–
COc1ccc2nc3cc(Cl)ccc3c(Nc3ccc(O)c(CN4CCN(C)CC4)c3)c2c1,active: 1.84 µM,–
CC(C)c1ccc(CC(=O)N2CCC2(C)C(=O)Nc2cccc(C#N)c2)cc1 (centres undefined),"inconclusive: 16.4 µM [inhibitor, single point]",–
O=C(COC(=O)c1ccc2c(=O)n3c(nc2c1)CCC3)NC1CCS(=O)(=O)C1 (centres undefined),–,inactive: 10.2%
CCCNS(=O)(=O)c1ccc(NC(=O)c2cccnc2)cc1,"inconclusive: 22.4 µM [inhibitor, single point]",–
CC1=CC(C)(C)NC(=S)N1c1ccc(C)cc1C,"inconclusive: 29.1 µM [inhibitor, single point]",–
Clc1cc(Cl)c(OCC#CI)cc1Cl,active: 1.68 µM,–
Cc1cccc(-c2nc(CN3CCCC(C(=O)NC4CCCC4)C3)c(C)o2)c1 (centres undefined),"inconclusive: 20.6 µM [inhibitor, single point]",–
Cc1nn(Cc2c(Cl)cccc2Cl)c(C)c1NC(=O)/C=C/c1cnn(C)c1C,"inconclusive: 18.4 µM [inhibitor, single point]",–
CC(C)C(Sc1nc(-c2ccccc2)cc(-c2ccccc2)c1C#N)C(=O)O (centres undefined),"inconclusive: 29.1 µM [inhibitor, single point]",–
O=C(C[C@H]1C(=O)N(Cc2ccccc2)C[C@@H]1Cc1ccccc1)Nc1ccccc1,active: 12.6 µM,–
O=C(NCCN1CCOCC1)c1cccc(S(=O)(=O)NCc2ccccc2)c1,–,inactive: 6.46%
Cc1sc2ncnc(N3CCC(C(=O)NNC(=O)COc4ccccc4Cl)CC3)c2c1C,"inconclusive: 29.1 µM [inhibitor, single point]",–
N#CCc1c(C#N)c(N)nc(N2CCCC(O)C2)c1C#N (centres undefined),–,inactive: -4.87%
N#Cc1ccc(C(=O)Nc2nnc(-c3ccccn3)o2)cc1,"inconclusive: 29.1 µM [inhibitor, single point]",–
CCOC(=O)c1c(NC(=O)CN2CCN(C(=O)c3ccco3)CC2)sc(C)c1C,"inconclusive: 23.1 µM [inhibitor, single point]",–
Fc1ccc(-c2nc3ccncc3[nH]2)cc1,–,inactive: -22.5%
O=C(Nc1ccccc1)Nc1ccc(Cl)c(S(=O)(=O)N2CCOCC2)c1,"inconclusive: 29.1 µM [inhibitor, single point]",–
Cc1cccc2sc(NC(=O)CCNS(=O)(=O)c3cccc4nonc34)nc12,"inconclusive: 32.6 µM [inhibitor, partial curve]",–
COc1ccc(NC(=O)C(c2ccccc2)N(C)C(=O)/C=C\c2ccc3c(c2)OCO3)cc1 (centres undefined),"inconclusive: 23.1 µM [inhibitor, single point]",–

Structure (SMILES),Potency,"activity change, negative = growth inhibition"
Cc1cn2c(=O)c(S(=O)(=O)Nc3ccc(OC(F)(F)F)cc3)c(C)nc2s1,active: 20.6 µM,–
O=C(NC1CCCCC1)C(c1ccc(Cl)cc1)N1CCC2(CC1)OCCO2 (centres undefined),"inconclusive: 16.4 µM [inhibitor, partial curve, poor fit]",–
COc1ccccc1NC(=O)C1=C(C)NC(SCC(=O)Nc2ccc(C(=O)O)cc2)=C(C#N)C1c1cccs1 (centres undefined),–,inactive: 8.14%
Cc1cccc(C(=O)N/N=C/c2ccoc2)c1,–,inactive: -6.15%
COc1ccc(-c2noc(CSc3nnc(C)n3-c3ccc(F)cc3)n2)cc1,"inconclusive: 16.4 µM [inhibitor, single point]",–
CC(=O)Nc1ccc(S(=O)(=O)c2c(N)n(CCN3CCOCC3)c3nc4ccccc4nc23)cc1,–,inactive: -8.15%
CCOC(=O)c1sc2nccc(N(C)C)c2c1N=CNOCc1c(F)cccc1Cl,"inconclusive: 29.1 µM [inhibitor, single point]",–
Cn1c(COc2ccccc2Br)nc2ccccc21,"inconclusive: 18.4 µM [inhibitor, single point]",–
COc1cc(C2c3[nH]c4ccccc4c3CC3COC(=O)N32)cc(OC)c1O (centres undefined),active: 0.291 µM,–
COc1ccc(C(CC(=O)Nc2cc(Cl)c(OC)cc2OC)N2Cc3ccccc3C2=O)cc1 (centres undefined),"inconclusive: 8.2 µM [inhibitor, partial curve]",–
Cc1c(C)n(CCCN(C)C)c2ncnc(Nc3ccccc3)c12,–,inactive: 13.7%
CCOc1ccc(C(=O)Nc2ccc3nc(Nc4cccc(C(F)(F)F)c4)cc(C)c3c2)cc1OCC,active: 18.4 µM,–
O=C(NC(=S)Nc1ccccc1)c1ccc(-c2ccccc2)cc1,"inconclusive: 29.1 µM [inhibitor, single point]",–
CCOc1ccc(S(=O)(=O)NCCCn2ccnc2)cc1,"inconclusive: 20.6 µM [inhibitor, single point]",–
COc1ccc([C@H]2C[C@@H](O)[C@H](n3cc(-c4ccc(F)cc4)nn3)CN2CC2CCCCC2)cc1,"inconclusive: 16.4 µM [inhibitor, partial curve]",–
CNC(=S)N/N=C/c1c2ccccc2c(Cl)c2ccccc12,active: 5.8 µM,–
C=CCSC(=S)Nc1c(C)n(C)n(-c2ccccc2)c1=O,"inconclusive: 25.9 µM [inhibitor, single point]",–
CCc1sc(N(C(=O)Cc2ccccc2)c2ccccc2)nc1-c1ccccc1,"inconclusive: 29.1 µM [inhibitor, single point]",–
CCCCCCOC(=O)c1ccccc1NC(=O)/C=C/C(=O)O,active: 16.4 µM,–
COC(=O)c1cc(NC(=O)c2cc(C(C)(C)C)nn2Cc2ccc(F)cc2)ccc1N1CCOCC1,"inconclusive: 18.4 µM [inhibitor, single point]",–
CC(=O)c1sc2nc(-c3ccccc3)cc(C)c2c1N,–,inactive: 5.85%
COc1cc(C)c(-c2[nH]ncc2-c2csc(C)n2)c(O)c1,"inconclusive: 16.4 µM [inhibitor, single point]",–
O=C(c1ccco1)N1CCCC(c2nc3c(nnn3Cc3c(Cl)cccc3Cl)c(=O)[nH]2)C1 (centres undefined),"inconclusive: 20.6 µM [inhibitor, partial curve, poor fit]",–
